Source: PubChem BioAssay AID1745845 (National Center for Advancing Translational Sciences (NCATS), 2022)
Out of some 360,000 compounds screened, about 2,600 (0.72%) were called active. This list was built around the results that the source calls inconclusive (neither active nor inactive); the mix of calls is not that of the screen. Calls come from the whole dose curve; as a rule, active = well fitted inhibition curve with a large enough effect; inconclusive = small, poorly fitted or top-dose-only effect; inactive = no such curve, though single readings can be large or run the other way. Potencies of inconclusive entries are doubtful fits and often do not repeat.
% is set by controls: 0 for no effect and ±100 for the full control effect; potency is the fitted concentration of half-maximal effect; tags give direction and shape of the fitted curve.

Assay: Primary qHTS for Inhibitors of ATXN expression; note: nearly all actives have a fitted effect of over 55% in size
Settings: HEK-293 ATXN2-luciferase reporter, luminescence, 24 h; activity change, negative = inhibition: at 57 µM (top of the series)
Summary of the method: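 qHTS (up to 57 uM final) was run with 24 h compound exposure of reporter cells at 37 °C. Each well was multiplexed: SteadyGlo luminescence measured ATXN2-luciferase expression after a fluorogenic Gly-Phe-AFC viability readout (25 uM final).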
With COc1ccc(C2/C=C\CC(OCc3ccccc3)CC(=O)N2Cc2cccc(F)c2)cc1 (configuration not stated) the Potency was inconclusive: 39.8 µM [inhibitor, single point].
For COc1ccc2c(Sc3ccccc3)c(C(=O)NCCc3ccc(Cl)cc3)[nH]c2c1, the “activity change, negative = inhibition” value was inactive: 3.18%.
With CCn1cc(CN2CCCC(C(=O)Nc3cccc(-c4cc5ccccc5[nH]4)c3)C2)c(C)n1 (configuration not stated) the Potency was inconclusive: 25.1 µM [inhibitor, single point].
For CCC1(C)Cc2nc3[nH]c(=S)n(-c4ccccc4)c(=O)c3cc2CO1 (configuration not stated), the “activity change, negative = inhibition” value was inactive: -15.5%.
For CSc1ccc(CCNC(=O)c2c(C)nn(-c3ccc(F)cc3)c2-n2cccc2)cc1, the Potency was inconclusive: 28.2 µM [inhibitor, single point].
For CN(C)C(=O)c1cccc(-c2cnc3c(NC=O)cc(-c4ccc(F)cc4)cn23)c1, the Potency was active: 25.1 µM.
In the case of C=CCNC(=O)C1CC1(c1cccc(C)c1)c1cccc(C)c1 (configuration not stated), the “activity change, negative = inhibition” value is reported as inactive: -16.1%.
In the case of Cc1ccc(-n2ncc(C(=O)Nc3ccc(Cl)cc3)c2C2CCNCC2)cc1C, the Potency is reported as inconclusive: 39.8 µM [inhibitor, single point].
In the case of NC(COCc1ccccc1)c1csc(NC(=O)Nc2cccc(Cl)c2)n1 (configuration not stated), the Potency is reported as inconclusive: 35.5 µM [inhibitor, single point].
For Cc1ccc(C(=O)Nc2nnc(-c3ccco3)o2)cc1, the Potency was inconclusive: 39.8 µM [inhibitor, single point].
For N=c1c2c(n(Cc3ccc(Br)cc3)c3c1CCC3)CCCC2, the Potency was inconclusive: 8.91 µM [inhibitor, partial curve].
In the case of Cc1ccc(/C=C2\SC(=S)N(CCCC(=O)Nc3nccs3)C2=O)cc1, the Potency is reported as inconclusive: 10 µM [inhibitor, partial curve, poor fit].
With CCCCOC(=O)c1ccc(NC(=O)c2ccc3c(c2)CCCN3S(C)(=O)=O)cc1 the Potency was active: 7.08 µM.
In the case of CCOC(=O)N1CCN(C(=O)CCCn2c(=S)[nH]c3ccc(Br)cc3c2=O)CC1, the “activity change, negative = inhibition” value is reported as inactive: -3.13%.
For C[C@@H]1CC=C[C@@H]2[C@H]1C(=O)N(Cc1ccccc1)[C@H]2c1ccccc1Br, the Potency was inconclusive: 39.8 µM [inhibitor, single point].
With Fc1ccc(CNc2nc(-c3ccc(Cl)cc3)cc(C(F)(F)F)n2)cc1 the Potency was inconclusive: 39.8 µM [inhibitor, single point].
In the case of COc1ccc(NC(=O)c2ccc(NC(=O)CN3CCN(c4ccc(O)cc4)CC3)cc2)cc1, the Potency is reported as inconclusive: 3.98 µM [inhibitor, partial curve, poor fit].
In the case of CC1C(=O)N(Cc2cn(Cc3ccco3)nn2)CCS(=O)(=O)N1Cc1ccc(-c2ccccc2)cc1 (configuration not stated), the Potency is reported as inconclusive: 39.8 µM [inhibitor, partial curve, poor fit].
With COc1ccc(C(=O)c2c[nH]c(C(=O)NCc3cccnc3)c2)cc1 the Potency was inconclusive: 31.6 µM [inhibitor, partial curve, poor fit].
In the case of CN(C(=O)c1ccco1)c1nc(CC(=O)Nc2ccccc2)cs1, the Potency is reported as inconclusive: 7.08 µM [inhibitor, single point].
In the case of C/C(Cl)=C/Cn1c(SC(C)C)nc2c1c(=O)[nH]c(=O)n2C, the “activity change, negative = inhibition” value is reported as inactive: -3.55%.
For C/C=C(/C)C(=O)O[C@@H]1c2c(ccc3ccc(=O)oc23)O[C@@H]1C(C)(C)OC(=O)/C(C)=C\C, the Potency was inconclusive: 39.8 µM [inhibitor, single point].
In the case of COc1ccc(C2CC(O)(c3ccccc3)Oc3c(C)ccc(C)c32)cc1 (configuration not stated), the Potency is reported as inconclusive: 31.6 µM [inhibitor, single point].
For CCOC(=O)/C(C(N)=NCCCO)=C(/O)c1ccccc1, the “activity change, negative = inhibition” value was inactive: 11.9%.
For Cc1cccc(NC(=O)c2cc([N+](=O)[O-])ccc2N2CCCCC2)n1, the “activity change, negative = inhibition” value was inactive: -3.88%.
With COc1ccc(Cc2nnc(N/N=C/c3ccc(O)cc3)[nH]c2=O)cc1OC the Potency was active: 1.58 µM.
In the case of C=Cc1ccc(CSc2nc(-c3ccccc3C)nc3c2Cc2c(CO)cnc(C)c2O3)cc1, the Potency is reported as inconclusive: 39.8 µM [inhibitor, single point].
For CCOC(=O)c1c(C)[nH]c(C)c1C(=O)CSc1nc2ccccc2c(=O)n1-c1ccc(CC)cc1, the Potency was inconclusive: 31.6 µM [inhibitor, partial curve, poor fit].
With O=C1CCC([N+](=O)[O-])C(c2ccc(-c3ccccc3)cc2)N1 (configuration not stated) the “activity change, negative = inhibition” value was inactive: -1.69%.
With CCCCCc1c(-c2ccccc2F)ncn1CCc1ccccc1OC the Potency was inconclusive: 31.6 µM [inhibitor, single point].
With Cc1nc2ccn(Cc3cccnc3)c(=O)c2cc1C(=O)NCc1ccc(Cl)cc1 the Potency was inconclusive: 5.01 µM [inhibitor, full curve, poor fit].
With COc1cccc(Nc2nc(N)c([N+](=O)[O-])c(NCc3ccco3)n2)c1 the Potency was inconclusive: 28.2 µM [inhibitor, single point].
For O=C(C1CCCN(S(=O)(=O)c2ccc(Br)s2)C1)N1CCCCCC1 (configuration not stated), the “activity change, negative = inhibition” value was inactive: -24.1%.
For CC(C)(C)c1cc(C(=O)N/N=C/c2ccccc2O)n(-c2ccccc2)n1, the Potency was inconclusive: 3.16 µM [inhibitor, single point].
In the case of Cc1nn(CCCC(=O)Nc2sc3c(c2C#N)CCC3)c(C)c1[N+](=O)[O-], the “activity change, negative = inhibition” value is reported as inactive: -20.8%.
In the case of O=C(/C=C/c1ccccc1Cl)N(Cc1cccs1)C1CCS(=O)(=O)C1 (configuration not stated), the Potency is reported as inconclusive: 37.7 µM [inhibitor, single point].
With CCN(CC)Cc1nc2c(c(=O)[nH]1)C1(CCCCC1)Cc1ccccc1-2 the “activity change, negative = inhibition” value was inactive: -12.7%.
For COc1cccc(NC(=O)N(Cc2cn(C)c3ccccc23)C2CCCCC2)c1, the Potency was inconclusive: 31.6 µM [inhibitor, single point].
In the case of O=C(NNC(=S)Nc1ccc(Cl)cc1Cl)C1CC1, the “activity change, negative = inhibition” value is reported as inactive: 22.2%.
In the case of O=C(N/N=C1\CCCc2c1[nH]c1ccc(Cl)cc21)c1ccncc1, the Potency is reported as inconclusive: 17.8 µM [inhibitor, single point].
With COc1ccc2nc(C)cc(N/N=C/c3ccccc3)c2c1 the Potency was inconclusive: 39.8 µM [inhibitor, single point].
In the case of O=[N+]([O-])c1ccc(CN2CCOCCOCCN(Cc3ccc([N+](=O)[O-])cc3)CCOCC2)cc1, the Potency is reported as inconclusive: 42.3 µM [inhibitor, partial curve, poor fit].
In the case of O=C(CC1c2ccccc2Oc2ccccc21)Nc1ccccc1F, the Potency is reported as inconclusive: 16.8 µM [inhibitor, partial curve].
With CCCc1nc2c(C)cc(Br)cn2c1Cc1ccccc1 the Potency was inconclusive: 39.8 µM [inhibitor, single point].
With CSc1ccc(/C=N/Nc2cccc(C(=O)O)c2)cc1 the “activity change, negative = inhibition” value was inactive: -88.7%.
For Cc1cc(Nc2ccccc2)n(-c2nc3ccccc3[nH]2)n1, the Potency was inconclusive: 35.5 µM [inhibitor, single point].
In the case of Cc1cc(Br)cn2c(Cc3cccc(Cl)c3)c(-c3ccco3)nc12, the “activity change, negative = inhibition” value is reported as inactive: -2.76%.
In the case of COc1ccc(-n2ncc3c(N4CCN(Cc5ccccc5)CC4)ncnc32)cc1, the Potency is reported as inconclusive: 39.8 µM [inhibitor, single point].
In the case of COc1ccccc1/C=C\C(=O)NCC(=O)N/N=C/c1cccc(OC)c1O, the Potency is reported as inconclusive: 22.4 µM [inhibitor, partial curve, poor fit].
For O=[N+]([O-])c1cccc(-c2cc(-c3cc(Br)ccc3O)[nH]n2)c1, the Potency was inconclusive: 39.8 µM [inhibitor, single point].
For C=C(C)COc1ccc(-c2n[nH]c(C)c2Oc2ccccc2OC)c(O)c1, the Potency was inconclusive: 39.8 µM [inhibitor, single point].
In the case of Cc1cccc(C(=O)Nc2ccc(CC(=O)O)cc2)c1, the Potency is reported as inconclusive: 10 µM [inhibitor, partial curve].
In the case of COc1ccc(C(C)=O)cc1CSc1nnc(Nc2ccccc2)s1, the Potency is reported as inconclusive: 7.94 µM [inhibitor, partial curve, poor fit].
For Cc1ccc(-n2ncc3c(Nc4ccc5c(c4)OCCO5)ncnc32)cc1Cl, the “activity change, negative = inhibition” value was inactive: 1.64%.
With COC(C(=O)Nc1ccc(S(=O)(=O)Nc2ccc(F)cc2)cc1)c1ccccc1 (configuration not stated) the Potency was inconclusive: 31.6 µM [inhibitor, partial curve, poor fit].
With Cc1nc2c(=O)n(C)c(=O)n(C)c2nc1Cl the Potency was inconclusive: 37.7 µM [inhibitor, single point].
With CCOC(=O)c1c(NC(=O)c2ccc(S(=O)(=O)N3CCCC(C)C3)cc2)sc2c1CC(C)(C)NC2(C)C (configuration not stated) the Potency was inconclusive: 22.4 µM [inhibitor, single point].
For CC(=O)c1cccc(NC(=O)/C=C/c2ccc(S(=O)(=O)N3CCOCC3)cc2)c1, the Potency was inconclusive: 22.4 µM [inhibitor, single point].
In the case of O=S(=O)(c1ccc2ccccc2c1)N1CCC(c2nc(-c3ccncc3)no2)CC1, the Potency is reported as inconclusive: 17.8 µM [inhibitor, partial curve].
With Cc1nn(Cc2ccccc2Cl)c(C)c1CN(C)CC(O)COc1ccc(Cl)cc1 (configuration not stated) the Potency was inconclusive: 19.3 µM [inhibitor, partial curve].
For CCOc1ccc(CCNC(=O)NCc2noc3ccc(C)cc23)cc1, the “activity change, negative = inhibition” value was inactive: -1.96%.
In the case of CN(C)C(CNc1ncnc2sc3c(c12)CCCCC3)c1ccco1 (configuration not stated), the “activity change, negative = inhibition” value is reported as inactive: -15%.
In the case of Cc1cc(C(=O)CCl)c(C)n1Cc1ccco1, the Potency is reported as inconclusive: 37.7 µM [inhibitor, single point].
With NC(=O)c1ccc(NC(=O)C#Cc2ccccc2)cc1 the “activity change, negative = inhibition” value was inactive: 4.72%.
With O=S1(=O)CC(N2CCCCC2)CN1Cc1cn(Cc2ccc(C(F)(F)F)cc2)nn1 (configuration not stated) the “activity change, negative = inhibition” value was inactive: -5.72%.
In the case of CC(C)=C(NC(=O)c1ccccc1)C(=O)N/N=C(\C)c1ccccc1O, the Potency is reported as inconclusive: 22.4 µM [inhibitor, partial curve, poor fit].
For CCOC(=O)/C(=C/c1ccc(OC(F)F)cc1)C1=Nn2c(nnc2-c2ccc(Cl)cc2)SC1, the Potency was active: 10 µM.
